# From PubChem BioAssay (Tox21)
# This list was built around the results that the source calls inconclusive (neither active nor inactive); the mix of calls is not that of the screen. For part of these data: Potencies of inconclusive entries are left out as doubtful fits. Activity calls are given as the source filed them. Unless noted, calls follow the shape of the dose curve; as a rule, active = well fitted curve in the direction sought with a large enough effect in the repeat runs; inconclusive = weak or mixed curves; inactive = no such curve, though single readings can be large; an effect the other way counts as inactive or inconclusive.
# Legend:
# [1] = qHTS assay to identify small molecule antagonists of the farnesoid-X-receptor (FXR) signaling pathway - cell viability counter screen (AID 743221; active = well fitted cell-killing curve with a large enough effect in the repeat runs, not every such curve was filed as active; inconclusive = weak or mixed curves, or effect the other way; inactive = no such curve, though single readings can be large or run the other way; also: potency is read from the fitted curve at half-maximal effect; nearly all actives have a fitted effect of over 50% in size); settings: FXR-bla HEK293T viability, CellTiter-Glo luminescence, 16 h; activity change, negative = cytotoxicity: at 62.6 µM (top of the series) unless noted
# Summary of the method: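 CellTiter-Glo, 30 min RT, luminescence; same wells as the LiveBLAzer FRET read. Cells: FXR-UAS-bla HEK 293T. Treatment: compound with chenodeoxycholic acid 50 uM final, 16 h at 37 C.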
# [2] = target: Estrogen receptor (Homo sapiens) (UniProt P03372); test: qHTS assay to identify small molecule agonists of the estrogen receptor alpha (ER-alpha) signaling pathway (AID 743075; calls by dose curve;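 also: HEK293 GripTite cells with ER-alpha and UAS-driven beta-lactamase reporter; % is scaled to controls: 0 for no effect and ±100 for the full control effect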); settings: HEK293 ER-alpha-UAS-bla, beta-lactamase FRET ratio, 18 h; activation: at 70.1 µM (top of the series)
# [3] = A CellTox Green Cytotoxicity Assay to monitor cytotoxicity in HEK293 cells - 24 hour (AID 1224875); also: nearly all actives have a fitted effect of over 45% in size; also: potency is read from the fitted curve at half-maximal effect
# Summary of the method: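 Cells (HEK293, 600/well) and dye reagent are dispensed together. After 5 h at 37 C, 23 nL compound is pinned in. Plates stay at 37 C for 40 h with fluorescence read at 0h, 8h, 16h, 24h, 32h and 40h.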
# [4] = qHTS assay to identify small molecule antagonists of the estrogen receptor alpha (ER-alpha) signaling pathway using the BG1 cell line in the presence of 0.1 nM 17-beta-estradiol - cell viability counter screen (AID 1259241); also: % is scaled to controls: 0 for no effect and ±100 for the full control effect; nearly all actives have a fitted effect of over 40% in size
# Summary of the method: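 Viability in VM7Luc4E2 cells after 22 hr compound exposure under 0.1 nM 17beta-estradiol stimulation, by CellTiter-Fluor.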
# [5] = target: Peroxisome proliferator-activated receptor delta (Homo sapiens) (UniProt Q03181); test: qHTS assay to identify small molecule agonists of the peroxisome proliferator-activated receptor delta (PPARd) signaling pathway (AID 743212; calls by dose curve; also: potency is read from the fitted curve at half-maximal effect; as to activation: % is scaled to controls: 0 for no effect and ±100 for the full control effect); settings: HEK293H PPARd-UAS-bla, beta-lactamase FRET ratio, 17 h; activation: at 62.6 µM (top of the series) unless noted
# Summary of the method: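 Read-out: beta-lactamase FRET fluorescence after 2 h room-temperature incubation with LiveBLAzer B/G substrate. Cells were HEK293H carrying a UAS-bla reporter for PPARd, treated at 37 C with DMSO-dissolved compounds.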
# [6] = qHTS assay to identify small molecule antagonists of the thyroid receptor (TR) signaling pathway (AID 743065); also: potency is read from the fitted curve at half-maximal effect; nearly all actives have a fitted effect of over 55% in size
# Summary of the method: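 GH3.TRE-Luc rat pituitary cells (two TREs driving luciferase) were dosed with compound, then stimulated with 1 nM T3 (final) for 23.5 h at 37 C. ONE-Glo luminescence was the read-out, with CellTiter-Fluor fluorescence as the cytotoxicity counter-screen.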
# [7] = target: Estrogen receptor (Homo sapiens) (UniProt P03372); test: qHTS assay to identify small molecule antagonists of the estrogen receptor alpha (ER-alpha) signaling pathway using the BG1 cell line in the presence of 0.1 nM 17-beta-estradiol (AID 1259244); also: % is scaled to controls: 0 for no effect and ±100 for the full control effect; nearly all actives have a fitted effect of over 50% in size
# Summary of the method: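 Antagonist mode: compounds in DMSO are pinned onto VM7Luc4E2 reporter cells, 0.1 nM final 17beta-estradiol is added, and after 22 h at 37C luciferase luminescence is measured with ONE-Glo.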
# [8] = A CellTox Green Cytotoxicity Assay to monitor cytotoxicity in HepG2 cells - 16 hour (AID 1224876); also: % is scaled to controls: 0 for no effect and ±100 for the full control effect; nearly all actives have a fitted effect of over 45% in size
# Summary of the method: (§1)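 Cells and non-lytic dye reagent are dispensed together (600 HepG2 cells/well) and incubated 5 h before DMSO compound transfer. Kinetic fluorescence is then recorded in the same wells during 40 h at 37 C.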
# [9] = qHTS assay to identify small molecule agonists of the TGF-beta/Smad signaling pathway - cell viability counter screen (AID 1346829); also: nearly all actives have a fitted effect of over 45% in size; also: potency is read from the fitted curve at half-maximal effect; as to activity change, negative = cytotoxicity: top concentration of the series differs between compounds; % is scaled to controls: 0 for no effect and ±100 for the full control effect
# Summary of the method: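 HEK 293T SBE-bla line, 5 hr compound exposure at 37 C, multiplexed CellTiter-Glo viability read by luminescence.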
# [10] = A CellTox Green Cytotoxicity Assay to monitor cytotoxicity in HepG2 cells - 0 hour (AID 1224882); also: nearly all actives have a fitted effect of over 35% in size; also: potency is read from the fitted curve at half-maximal effect
# Summary of the method: as §1
# [11] = qHTS assay to identify small molecule agonists of the estrogen receptor alpha (ER-alpha) signaling pathway in the presence of an antagonist - cell viability counter screen (AID 1259386);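 also: cells exposed to compounds for 22 h at 37 °C before the viability read; nearly all actives have a fitted effect of over 30% in size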; also: potency is read from the fitted curve at half-maximal effect; as to activity change, negative = cytotoxicity: % is scaled to controls: 0 for no effect and ±100 for the full control effect
# Summary of the method: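 Cytotoxicity was measured in parallel with the ERE-luciferase agonist screen, in the same wells. The cells were VM7Luc4E2, which endogenously express ER-alpha, and treatment was with compounds plus 10.0nM ICI-182,780 for 22hr.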
# [12] = qHTS assay to identify small molecule antagonists of the androgen receptor (AR) signaling pathway using the MDA cell line in the presence of 0.5 nM R1881 - cell viability counter screen (AID 1259242); also: % is scaled to controls: 0 for no effect and ±100 for the full control effect; nearly all actives have a fitted effect of over 45% in size
# Summary of the method: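 Steps: plate MDA-kb2 cells, rest 5 hr at 37C without CO2; pin in compounds in DMSO; add R1881 to 0.5 nM final; incubate 16 hr; add CellTiter-Fluor, 30 min; read fluorescence.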
# [13] = qHTS assay for small molecule agonists of the antioxidant response element (ARE) signaling pathway - cell viability counter screen (AID 743203; calls by dose curve; also: potency is read from the fitted curve at half-maximal effect; nearly all actives have a fitted effect of over 55% in size); settings: ARE-bla HepG2 viability, CellTiter-Glo luminescence, 16 h; viability change, negative = cytotoxic: at 73.3 µM (top of the series)
# Summary of the method: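 Cytotoxicity was tested in parallel with the ARE reporter screen. ARE-bla HepG2 cells were exposed to compounds for 16 hrs, and viability was taken from CellTiter-Glo luminescence.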
# [14] = qHTS assay for small molecules that induce genotoxicity in human embryonic kidney cells expressing luciferase-tagged ATAD5 - cell viability (AID 651634; calls by dose curve; also: nearly all actives have a fitted effect of over 25% in size; also: potency is read from the fitted curve at half-maximal effect)
# Summary of the method: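 Cells (HEK293T, luciferase-tagged ATAD5) are seeded at 2,000 per well, dosed with compound or DMSO vehicle, and incubated 15.5 hr at 37C and 5% CO2. CellTiter-Fluor is added for 30 min before fluorescence is measured.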
# [15] = qHTS RealTime-Glo MT Cell Viability Assay in HEK293 cells - 0 hour (AID 1224880); also: nearly all actives have a fitted effect of over 45% in size; also: potency is read from the fitted curve at half-maximal effect
# Summary of the method: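 Real-time viability in HEK293: signal arises when living cells convert a prosubstrate for NanoLuc in the medium, so luminescence tracks viable cell number. Compound (23 nL, DMSO) added 5 h post-seeding; kinetic reads at 0–40 h, 37 C.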
# [16] = qHTS assay for small molecules that induce genotoxicity in human embryonic kidney cells expressing luciferase-tagged ATAD5 (AID 651632); also: potency is read from the fitted curve at half-maximal effect; nearly all actives have a fitted effect of over 15% in size
# Summary of the method: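 Cells were seeded at 2,000 per well, dosed with compound, and incubated 16 hr at 37C in 5% CO2. Luciferase activity was then quantified after a 30 min room-temperature incubation with Amplite.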
# [17] = target: Nuclear receptor subfamily 1 group I member 2 (Homo sapiens) (UniProt O75469); test: Human pregnane X receptor (PXR) activation by small molecules, qHTS assay (AID 1346985); also: potency is read from the fitted curve at half-maximal effect; nearly all actives have a fitted effect of over 40% in size
# Summary of the method: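 DPX-2 cells (HepG2 co-transfected with a PXR response element and a CYP3A4-promoter luciferase construct) were seeded at 2,000 per well, rested 5 hr at 37C, then exposed to DMSO-dissolved compounds for 24 hr. Activation was read as luciferase luminescence.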
# [18] = qHTS assay to identify small molecule that activate the aryl hydrocarbon receptor (AhR) signaling pathway - cell viability counter screen (AID 743086)
# Summary of the method: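 HepG2-AhR-luc (HG2L7.5c1) cells, 4000/well, treated 24 h at 37 C with compound; viability measured as CellTiter-Fluor fluorescence after 30 min in the same wells as the luciferase read.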
# [19] = target: Bile acid receptor (Homo sapiens) (UniProt Q96RI1); test: qHTS assay to identify small molecule agonists of the farnesoid-X-receptor (FXR) signaling pathway (AID 743220; active = well fitted activation curve with a large enough effect in the signal ratio in the repeat runs, not every such curve was filed as active; inconclusive = weak or mixed curves, or effect the other way; the % refers to the signal ratio; also: potency is read from the fitted curve at half-maximal effect); settings: HEK293T FXR-UAS-bla, beta-lactamase FRET ratio, 16 h; activation: at 62.6 µM (top of the series) unless noted
# Summary of the method: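 FXR-UAS-bla HEK 293T cells carrying a UAS-driven beta-lactamase reporter were plated for 5 h at 37C/5% CO2, then exposed to DMSO-dissolved Tox21 10K compounds for 16 h at 37C. A LiveBLAzer B/G FRET substrate was loaded for 2 h at room temperature before fluorescence reading.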
# [20] = target: Glucocorticoid receptor (Homo sapiens) (UniProt P04150); test: qHTS assay to identify small molecule agonists of the glucocorticoid receptor (GR) signaling pathway (AID 720691; active = well fitted activation curve with a large enough effect in the signal ratio in the repeat runs, not every such curve was filed as active; inconclusive = weak or mixed curves, or effect the other way; inactive = no such curve, though single readings can be large or run the other way; the % refers to the signal ratio; also: potency is read from the fitted curve at half-maximal effect); settings: GR-bla HeLa, beta-lactamase reporter ratio, 18 h; activation: at 62.4 µM (top of the series) unless noted
# Summary of the method: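 Steps: seed GR-bla HeLa cells, incubate 4 h at 37 C/5% CO2; pin-transfer DMSO-dissolved compounds; incubate 18 h at 37 C; add LiveBLAzer B/G FRET substrate; after 2 h at room temperature, measure fluorescence.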
# Tags tell the direction and shape of the fitted curve or compound fluorescence and quenching.
# UniProt Q96RI1, sequence (Q96RI1 whole entry, looked up): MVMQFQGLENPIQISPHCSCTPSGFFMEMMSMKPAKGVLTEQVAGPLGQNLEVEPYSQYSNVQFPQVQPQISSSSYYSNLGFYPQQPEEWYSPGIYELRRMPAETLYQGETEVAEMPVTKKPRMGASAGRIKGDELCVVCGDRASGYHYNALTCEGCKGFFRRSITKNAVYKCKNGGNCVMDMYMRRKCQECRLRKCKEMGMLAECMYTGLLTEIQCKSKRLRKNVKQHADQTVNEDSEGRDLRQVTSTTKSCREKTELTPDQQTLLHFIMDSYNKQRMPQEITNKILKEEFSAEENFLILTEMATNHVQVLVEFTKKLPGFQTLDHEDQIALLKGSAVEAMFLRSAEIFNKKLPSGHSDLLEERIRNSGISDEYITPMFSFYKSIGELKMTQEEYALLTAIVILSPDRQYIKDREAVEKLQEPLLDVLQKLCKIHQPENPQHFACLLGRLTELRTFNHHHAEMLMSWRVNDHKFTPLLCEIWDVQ
# UniProt P03372, sequence (P03372 whole entry, looked up): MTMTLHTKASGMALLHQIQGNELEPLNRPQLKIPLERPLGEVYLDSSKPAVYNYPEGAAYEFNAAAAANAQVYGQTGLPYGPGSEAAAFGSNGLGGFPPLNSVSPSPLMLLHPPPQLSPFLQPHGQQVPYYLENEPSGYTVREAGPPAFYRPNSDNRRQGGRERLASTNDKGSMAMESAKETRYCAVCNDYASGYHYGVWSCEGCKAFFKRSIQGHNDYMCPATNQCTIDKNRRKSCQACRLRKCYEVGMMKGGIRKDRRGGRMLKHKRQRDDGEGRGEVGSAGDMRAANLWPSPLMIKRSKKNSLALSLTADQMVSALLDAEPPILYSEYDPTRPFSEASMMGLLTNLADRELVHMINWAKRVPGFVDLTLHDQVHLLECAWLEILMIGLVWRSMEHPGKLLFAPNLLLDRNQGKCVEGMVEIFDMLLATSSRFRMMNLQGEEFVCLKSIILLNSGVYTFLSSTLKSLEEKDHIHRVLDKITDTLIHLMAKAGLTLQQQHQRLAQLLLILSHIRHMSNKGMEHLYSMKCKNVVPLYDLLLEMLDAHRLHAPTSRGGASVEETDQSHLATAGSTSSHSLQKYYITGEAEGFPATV
# UniProt Q03181, sequence (Q03181 whole entry, looked up): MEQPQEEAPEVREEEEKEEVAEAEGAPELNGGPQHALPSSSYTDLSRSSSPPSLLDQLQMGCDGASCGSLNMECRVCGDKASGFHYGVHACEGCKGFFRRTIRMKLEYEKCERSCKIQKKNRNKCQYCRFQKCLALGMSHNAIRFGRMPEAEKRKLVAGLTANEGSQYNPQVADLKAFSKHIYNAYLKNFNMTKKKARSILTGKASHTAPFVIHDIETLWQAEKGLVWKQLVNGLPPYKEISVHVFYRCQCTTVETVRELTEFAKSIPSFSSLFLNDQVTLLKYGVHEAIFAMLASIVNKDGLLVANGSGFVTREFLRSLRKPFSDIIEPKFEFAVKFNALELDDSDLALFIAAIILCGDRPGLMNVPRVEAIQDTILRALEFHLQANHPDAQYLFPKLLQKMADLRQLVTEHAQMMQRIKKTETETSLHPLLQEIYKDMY
# UniProt P04150, sequence (P04150 whole entry, looked up): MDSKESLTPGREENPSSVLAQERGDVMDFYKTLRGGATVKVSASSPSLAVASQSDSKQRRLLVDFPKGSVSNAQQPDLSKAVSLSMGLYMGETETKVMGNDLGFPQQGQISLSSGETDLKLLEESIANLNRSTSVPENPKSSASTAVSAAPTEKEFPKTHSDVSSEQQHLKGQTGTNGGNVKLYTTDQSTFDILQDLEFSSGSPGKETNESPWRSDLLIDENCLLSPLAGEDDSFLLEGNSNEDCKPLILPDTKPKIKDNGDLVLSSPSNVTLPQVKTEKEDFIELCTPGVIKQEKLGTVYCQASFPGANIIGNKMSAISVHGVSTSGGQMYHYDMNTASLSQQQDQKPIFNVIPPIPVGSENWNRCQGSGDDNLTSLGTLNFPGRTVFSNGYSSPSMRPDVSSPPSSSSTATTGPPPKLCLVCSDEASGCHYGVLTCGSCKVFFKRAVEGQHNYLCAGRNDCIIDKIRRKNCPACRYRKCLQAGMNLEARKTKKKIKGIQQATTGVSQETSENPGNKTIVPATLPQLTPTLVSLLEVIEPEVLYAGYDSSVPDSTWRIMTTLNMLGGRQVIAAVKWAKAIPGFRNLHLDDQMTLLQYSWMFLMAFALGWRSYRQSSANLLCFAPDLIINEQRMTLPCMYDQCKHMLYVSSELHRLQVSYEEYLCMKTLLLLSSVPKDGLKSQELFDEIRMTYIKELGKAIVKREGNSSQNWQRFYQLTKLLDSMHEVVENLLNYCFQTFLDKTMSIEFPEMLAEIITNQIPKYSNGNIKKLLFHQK
smiles,measurement,setting,value
CC1(c2ccccc2)OC(C(=O)O)=CC1=O (configuration not stated),Potency,[1],"inconclusive [falling, partial curve, poor fit]"
CC(C)=CCC/C(C)=C/C=N/O,Potency,[2],inactive
same,Potency,[3],"inconclusive [activator, single point]"
Nc1cc(N)cc(C(=O)O)c1,Potency,[4],inactive
CCC(=O)OC(C)c1ccccc1 (configuration not stated),Potency,[5],inactive
same,Potency,[3],"inconclusive [activator, partial curve, poor fit]"
CCCCCOC(=O)COc1cc(N2C(=O)C3=C(CCCC3)C2=O)c(F)cc1Cl,Potency,[6],"inconclusive [inhibitor, single point]"
same,Potency,[2],inactive
same,Potency,[7],inactive
CN1CCN(C(=O)C2CCCCC2)CC1,Potency,[8],inactive
CC(C)CCCCCCOC(=O)c1ccc(C(=O)OCCCCCCC(C)C)c(C(=O)OCCCCCCC(C)C)c1,Potency,[9],inactive
NC(=O)c1ncn([C@@H]2O[C@H](CO)[C@@H](O)[C@H]2O)c1O,Potency,[10],"inconclusive [activator, partial curve, poor fit]"
same,Potency,[11],"inconclusive [cytotoxic, single point]"
CCOC(=N)CC(=O)OCC,Potency,[12],inactive
same,Potency,[9],inactive
O=C(O)CCc1ccccc1,Potency,[13],"inconclusive [rising, full curve, poor fit]"
CN(C)N=Nc1ccccc1,Potency,[14],"inconclusive [falling, partial curve, poor fit]"
same,Potency,[5],inactive
same,Potency,[11],inactive
O=C1CCC(=O)N1,Potency,[15],"inconclusive [falling, single point]"
COc1ccc(C(=O)c2ccc(C)cc2)c(O)c1,Potency,[16],"inconclusive [activator, partial curve]"
same,Potency,[10],inactive
same,Potency,[17],"inconclusive [activator, partial curve, poor fit]"
COc1ccc(OC)c(OC)c1,Potency,[14],inactive
O=C(O)P(=O)(O)O,Potency,[9],"inconclusive [cytotoxic, single point]"
O=[N+]([O-])c1cc(C(F)(F)F)ccc1Cl,Potency,[3],"inconclusive [activator, single point]"
same,Potency,[12],inactive
COc1cccc(Br)c1,Potency,[18],"inconclusive [falling, full curve, poor fit]"
same,Potency,[19],"inconclusive [rising, partial curve, poor fit]"
same,Potency,[15],inactive
same,Potency,[10],"inconclusive [activator, single point]"
On1nnc2ccccc21,Potency,[1],"inconclusive [falling, partial curve, poor fit]"
COC(=O)CCCCCCCCC(=O)OC,Potency,[19],inactive
CCOc1ccc2nc(S(N)(=O)=O)sc2c1,Potency,[20],"inconclusive [rising, partial curve]"
same,Potency,[5],"inconclusive [rising, full curve, poor fit]"
same,Potency,[19],"inconclusive [rising, full curve, poor fit]"
CC1(C)[C@H]2CC[C@](C)(C2)[C@H]1O,Potency,[3],inactive
CC(C)CCCCCCN,Potency,[9],inactive
CCC(C)C(=O)OCCc1ccccc1 (configuration not stated),Potency,[5],inactive
same,Potency,[7],inactive
Cc1ccccc1C=O,activation,[5],inconclusive: 2.99%
CCCCN(CCCC)CCCC,Potency,[12],inactive
